Measurements published in PubChem BioAssay AID463173 (ICCB-Longwood Screening Facility, Harvard Medical School, 2010).
Out of some 52,000 compounds screened, about 1,700 (3.3%) were called active. Cut-off read from the data, not from the text of the source: active = survival mostly below about 52% (no sharp cut-off); inactive = mostly above about 56%. Some of the results follow.

test system: Wild type; experiment: S. aureus survival, RN4220 and DeltatarO strains – OD600, teichoic acid synthesis inhibitors, primary screen (AID 463173); conditions: S. aureus RN4220 wild type/DeltatarO growth, OD600, 18 h, stronger effect = lower value, screened at 18.75 µg/mL (by protocol)

Compound	survival
CC(=O)Nc1cc(C(=O)NCc2ccc(F)cc2)ccc1Sc1ccc(F)cc1	inactive: 71%
Cc1ccc(C)c(S(=O)(=O)c2nnn3c2nc(N2CCN(C)CC2)c2sccc23)c1	inactive: 103%
COc1ccc(CC(=O)NCC(c2cccs2)S(=O)(=O)c2ccc(F)c(C)c2)cc1 (stereo not given)	inactive: 119%
Cc1ccc(S(=O)(=O)Nc2nnc(CC(C)(C)C)s2)cc1	inactive: 107%
CC(=O)Nc1ccc(NC(=O)CN(C)S(=O)(=O)c2ccc3c(c2)CCCC(=O)N3)cc1	inactive: 56%
O=c1c2cc3c(cc2nc2sc(Nc4cccc([N+](=O)[O-])c4)nn12)OCO3	inactive: 124%
Cc1ccccc1CSc1ncc(Cl)c(C(=O)Nc2nc3ccc(F)cc3s2)n1	inactive: 115%
COc1ccccc1C(=O)N/C(=C\c1cn(S(=O)(=O)N(C)C)c2ccccc12)C(=O)NCCCn1ccnc1	inactive: 101%
CCc1ccc(CNC(=O)C2CCCN(c3nnc(C)c4c(C)n(-c5ccccc5)nc34)C2)cc1 (stereo not given)	inactive: 73%
Cc1cccc(CN2CCC(CNC(=O)Cn3ncc4c([nH]c5ccc(C)cc54)c3=O)CC2)c1	inactive: 129%
COc1ccccc1C(=O)Nc1nc2n(n1)C(c1ccc(F)cc1)C=C(c1ccc(Cl)cc1)N2 (stereo not given)	inactive: 46%
CCOC(=O)c1cc(S(=O)(=O)NCc2ccc(Cl)cc2)[nH]n1	inactive: 76%
COc1ccccc1NC(=O)C1=C(C)Nc2nc(SC)nn2C1c1ccccc1Cl (stereo not given)	inactive: 78%
Cc1cc2n(n1)CCC(=O)N2Cc1ccc(C(=O)Nc2cc(Cl)ccc2C)cc1	inactive: 77%
COc1ccccc1C(=O)Nc1ccc2nc(SCC(=O)N3CCCc4ccccc43)sc2c1	inactive: 92%
COc1ccc(OC)c(NC(=O)C2CCCN(S(=O)(=O)c3ccc4c(c3)CCCC(=O)N4)C2)c1 (stereo not given)	inactive: 99%
COc1ccc(NC(=O)c2ccco2)cc1NC(=O)c1cc(Cl)ccc1OC	inactive: 65%
O=S1(=O)c2ccccc2N(Cc2cccc(F)c2)c2ccccc21	inactive: 65%
COc1cccc(-c2cc(C(F)(F)F)nc(NCCc3ccc(OC)c(OC)c3)n2)c1	inactive: 25%
CCCN(CCC)C(=O)Cn1c(=O)n(-c2cccc(C)c2)c(=O)c2c1c1cc(OC)ccc1n2C	inactive: 72%
CSc1ccc(-c2nnn(CC(=O)Nc3sc4c(c3C#N)CCC(C(C)(C)C)C4)n2)cc1 (stereo not given)	inactive: 82%
CCCCOc1ccc(C(C)NC(=O)CN2C(=O)CSc3ccc(S(=O)(=O)N4CCOCC4)cc32)cc1 (stereo not given)	inactive: 65%
O=C(CN1CCCN(Cc2cccc(Cl)c2)S1(=O)=O)Nc1ccc2c(c1)OCCO2	inactive: 77%
CC(C)CC(=O)NCC(c1ccc2c(c1)OCO2)N1CCN(c2ccccc2)CC1 (stereo not given)	inactive: 77%
COc1ccc(-c2[nH]nc3nc(-c4cc(Br)ccc4OC)cc(C(=O)O)c23)cc1	inactive: 88%
Cc1c(C(=O)OC2CCCCC2)[nH]c2c1C(=O)CC(c1ccc(F)cc1)C2 (stereo not given)	inactive: 83%
Cc1cccc(NC(=O)c2ccc(-n3c(C)nnc3C)cc2)c1	inactive: 92%
Cc1ccc(-n2ncc3c(N4CCCCCC4)ncnc32)cc1Cl	inactive: 73%

Compound	survival
COc1ccccc1CNC(=O)CCc1c(C)nc2cc(-c3ccc(Cl)cc3)nn2c1C	inactive: 141%
COc1ccccc1CN1CCC(CNC(=O)c2cnn(-c3ccccc3Cl)c2C2CCN(C(=O)OC(C)(C)C)CC2)CC1	inactive: 60%
CC1=NN(c2cccc3ccccc23)C(=O)C1	inactive: 48%
CCC(=O)Nc1ccc(Cl)c(-c2nc3ccccc3[nH]2)c1	inactive: 79%
CCn1c(COc2ccc(Cl)cc2Cl)nc2ccccc21	inactive: 78%
CCc1ccccc1NC(=O)c1cn(C)c(=O)c2ccccc12	inactive: 93%
O=S(=O)(c1ccc(F)cc1)N1CCC(Oc2cccc(C(F)(F)F)c2)CC1	inactive: 86%
COc1c(Cl)cc(Cl)cc1C(=O)Nc1cccc(-c2nc3ccccc3o2)c1C	inactive: 125%
COc1ccc(CCNC(=O)CCCn2c(=O)c3ccccc3n(Cc3ccccc3)c2=O)cc1OC	inactive: 95%
COc1cccc(CNC(=O)C(=O)NCC(c2cccs2)S(=O)(=O)c2ccccc2)c1 (stereo not given)	inactive: 136%
Cc1cccc(N2CCN(C(=O)c3ccc4c(c3)N(Cc3ccccc3)C(=O)c3ccccc3S4(=O)=O)CC2C)c1 (stereo not given)	inactive: 80%
Cc1c2cnn(-c3ccccc3)c(=O)c2c(C)n1C(C)C(=O)Nc1ccccc1C(F)(F)F (stereo not given)	inactive: 81%
Cc1cccc(CCNC(=O)c2cc(S(=O)(=O)N3CCCCC3)c[nH]2)c1	inactive: 92%
COc1ccc(CCN2C(=O)N(c3cccc(C)c3)C(=O)C2CC(=O)Nc2ccccc2)cc1OC (stereo not given)	inactive: 75%
Clc1ccc(CCNc2nc3cc(Cl)c(Cl)cc3n3cnnc23)cc1	inactive: 93%
CCn1c(=O)ccc2cc(OC)ccc21	inactive: 105%
Cc1ccc(C)c(NC(c2ccccc2)c2nnc(-c3ccccc3F)o2)c1 (stereo not given)	active: 5%
COc1ccc(-c2nnc(SCC(=O)N3CCC(C)CC3)o2)cc1	inactive: 71%
COc1ccc(-c2nnc(C3CCN(S(=O)(=O)c4cccc(Cl)c4)CC3)o2)cc1	inactive: 78%
COc1cc(-c2nc(SCC(=O)Nc3ccc4c(c3)OCO4)c(-c3ccccc3)[nH]2)cc(OC)c1OC	inactive: 63%
COc1ccccc1CNC(=O)CSc1ncc(S(=O)(=O)c2ccc(C)c(Cl)c2)c(=O)[nH]1	inactive: 135%
C[N+](C)(C)CCNC(=O)c1ccc(/C=N/O)nc1	inactive: 114%
COc1ccc(OCCn2c(NC(=O)c3ccc(OC)cc3)nc3ccccc32)cc1	active: -13%
CCC1(CC)Cc2ccccc2-c2nc(NN)n(Cc3ccccc3)c(=O)c21	inactive: 112%
COCCCNC(=O)C1CCN(Cc2cc3ccccc3n2Cc2cccc(C)c2)CC1	inactive: 77%
CNC(=O)C1CCC(Cn2c(=O)c3sccc3n(CC(=O)N3CCCC(C)C3)c2=O)CC1 (stereo not given)	inactive: 78%
CCCCOC(=O)c1c(C)oc2c1cc(NS(=O)(=O)c1cc(OC)ccc1OC)c1ccccc12	inactive: 66%
